In the supplement of paper PMC11876631:
± gives the standard deviation of the averaged measurements. Laboratory Escherichia coli strains with one amino-acid change in an essential protein, pooled on minimal glucose agar with carbenicillin or gentamicin at twice the control MIC (plus kanamycin and chloramphenicol for the plasmids), 48 h. Fold change of barcode share against drug-free plates; higher = less susceptible. Active = above 20 in both replicates (the paper's putatively resistant). '<' = one read or none on drug, '>' = one read or none on a drug-free plate. Shares are relative, so most strains fall below 1 when a few take over. Listed are strains with at least 15 reads on both drug-free plates, and hits; most hits rest on fewer reference reads. Replicate rank correlation about 0.5. Edits are read from barcodes.

Molecular target: Escherichia coli (laboratory strain)
Assay: barcode share on antibiotic plates over drug-free plates; higher = less susceptible
Experimental: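 A pool of E. coli strains, each edited to carry one amino-acid change in an essential protein, was grown for 48 h on minimal glucose agar with or without antibiotic; strain barcodes were sequenced; mean of two replicates.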

[1] = antibiotic: carbenicillin, 2× MIC (3.1 µg/mL)
[2] = antibiotic: gentamicin, 2× MIC (MIC 0.45 µg/mL)

B1: lolC M63A (protein)
chain: MYQPVALFIGLRYMRGRAADRFGRFVSWLSTIGITLGVMALVTVLSVMNGFERELQNNILGLAPQAILSSEHGSLNPQQLPETAVKLDGVNRVAPITTGDVVLQSARSVAVGVMLGIDPAQKDPLTPYLVNVKQTDLEPGKYNVILGEQLASQLGVNRGDQIRVMVPSASQFTPMGRIPSQRLFNVIGTFAANSEVDGYEMLVNIEDASRLMRYPAGNITGWRLWLDEPLKVDSLSQQKLPEGSKWQDWRDRKGELFQAVRMEKNMMGLLLSLIVAVAAFNIITSLGLMVMEKQGEVAILQTQGLTPRQIMMVFMVQGASAGIIGAILGAALGALLASQLNNLMPIIGVLLDGAALPVAIEPLQVIVIALVAMAIALLSTLYPSWRAAATQPAEALRYE
- fold change of barcode share [1]: 1.02 ± 0.97
- fold change of barcode share [2]: 0.0129 ± 0.0084

B2: lolC M63P (protein)
chain: MYQPVALFIGLRYMRGRAADRFGRFVSWLSTIGITLGVMALVTVLSVMNGFERELQNNILGLPPQAILSSEHGSLNPQQLPETAVKLDGVNRVAPITTGDVVLQSARSVAVGVMLGIDPAQKDPLTPYLVNVKQTDLEPGKYNVILGEQLASQLGVNRGDQIRVMVPSASQFTPMGRIPSQRLFNVIGTFAANSEVDGYEMLVNIEDASRLMRYPAGNITGWRLWLDEPLKVDSLSQQKLPEGSKWQDWRDRKGELFQAVRMEKNMMGLLLSLIVAVAAFNIITSLGLMVMEKQGEVAILQTQGLTPRQIMMVFMVQGASAGIIGAILGAALGALLASQLNNLMPIIGVLLDGAALPVAIEPLQVIVIALVAMAIALLSTLYPSWRAAATQPAEALRYE
- fold change of barcode share [1]: 0.0833 ± 0.036
- fold change of barcode share [2]: 0.0105 ± 0.0058

B3: lolC M63W (protein)
chain: MYQPVALFIGLRYMRGRAADRFGRFVSWLSTIGITLGVMALVTVLSVMNGFERELQNNILGLWPQAILSSEHGSLNPQQLPETAVKLDGVNRVAPITTGDVVLQSARSVAVGVMLGIDPAQKDPLTPYLVNVKQTDLEPGKYNVILGEQLASQLGVNRGDQIRVMVPSASQFTPMGRIPSQRLFNVIGTFAANSEVDGYEMLVNIEDASRLMRYPAGNITGWRLWLDEPLKVDSLSQQKLPEGSKWQDWRDRKGELFQAVRMEKNMMGLLLSLIVAVAAFNIITSLGLMVMEKQGEVAILQTQGLTPRQIMMVFMVQGASAGIIGAILGAALGALLASQLNNLMPIIGVLLDGAALPVAIEPLQVIVIALVAMAIALLSTLYPSWRAAATQPAEALRYE
- fold change of barcode share [1]: 2.15 ± 2.6
- fold change of barcode share [2]: < 0.016

B4: lolC M165A (protein)
chain: MYQPVALFIGLRYMRGRAADRFGRFVSWLSTIGITLGVMALVTVLSVMNGFERELQNNILGLMPQAILSSEHGSLNPQQLPETAVKLDGVNRVAPITTGDVVLQSARSVAVGVMLGIDPAQKDPLTPYLVNVKQTDLEPGKYNVILGEQLASQLGVNRGDQIRVAVPSASQFTPMGRIPSQRLFNVIGTFAANSEVDGYEMLVNIEDASRLMRYPAGNITGWRLWLDEPLKVDSLSQQKLPEGSKWQDWRDRKGELFQAVRMEKNMMGLLLSLIVAVAAFNIITSLGLMVMEKQGEVAILQTQGLTPRQIMMVFMVQGASAGIIGAILGAALGALLASQLNNLMPIIGVLLDGAALPVAIEPLQVIVIALVAMAIALLSTLYPSWRAAATQPAEALRYE
- fold change of barcode share [1]: 0.231 ± 0.066
- fold change of barcode share [2]: < 0.00954

B5: lolC M63D (protein)
chain: MYQPVALFIGLRYMRGRAADRFGRFVSWLSTIGITLGVMALVTVLSVMNGFERELQNNILGLDPQAILSSEHGSLNPQQLPETAVKLDGVNRVAPITTGDVVLQSARSVAVGVMLGIDPAQKDPLTPYLVNVKQTDLEPGKYNVILGEQLASQLGVNRGDQIRVMVPSASQFTPMGRIPSQRLFNVIGTFAANSEVDGYEMLVNIEDASRLMRYPAGNITGWRLWLDEPLKVDSLSQQKLPEGSKWQDWRDRKGELFQAVRMEKNMMGLLLSLIVAVAAFNIITSLGLMVMEKQGEVAILQTQGLTPRQIMMVFMVQGASAGIIGAILGAALGALLASQLNNLMPIIGVLLDGAALPVAIEPLQVIVIALVAMAIALLSTLYPSWRAAATQPAEALRYE
- fold change of barcode share [1]: 0.882 ± 0.45
- fold change of barcode share [2]: 2.2 ± 3

B6: lolC M165W (protein)
chain: MYQPVALFIGLRYMRGRAADRFGRFVSWLSTIGITLGVMALVTVLSVMNGFERELQNNILGLMPQAILSSEHGSLNPQQLPETAVKLDGVNRVAPITTGDVVLQSARSVAVGVMLGIDPAQKDPLTPYLVNVKQTDLEPGKYNVILGEQLASQLGVNRGDQIRVWVPSASQFTPMGRIPSQRLFNVIGTFAANSEVDGYEMLVNIEDASRLMRYPAGNITGWRLWLDEPLKVDSLSQQKLPEGSKWQDWRDRKGELFQAVRMEKNMMGLLLSLIVAVAAFNIITSLGLMVMEKQGEVAILQTQGLTPRQIMMVFMVQGASAGIIGAILGAALGALLASQLNNLMPIIGVLLDGAALPVAIEPLQVIVIALVAMAIALLSTLYPSWRAAATQPAEALRYE
- fold change of barcode share [1]: 0.305 ± 0.064
- fold change of barcode share [2]: < 0.00992

B7: lolB I122D (protein)
chain: MPLPDFRLIRLLPLAALVLTACSVTTPKGPGKSPDSPQWRQHQQDVRNLNQYQTRGAFAYISDQQKVYARFFWQQTGQDRYRLLLTNPLGSTELELNAQPGNVQLVDNKGQRYTADDAEEMDGKLTGMPIPLNSLRQWILGLPGDATDYKLDDQYRLSEITYSQNGKNWKVVYGGYDTKTQPAMPANMELTDGGQRIKLKMDNWIVK
- fold change of barcode share [1]: 0.386 ± 0.06
- fold change of barcode share [2]: < 0.00709

B8: lolB W138Q (protein)
chain: MPLPDFRLIRLLPLAALVLTACSVTTPKGPGKSPDSPQWRQHQQDVRNLNQYQTRGAFAYISDQQKVYARFFWQQTGQDRYRLLLTNPLGSTELELNAQPGNVQLVDNKGQRYTADDAEEMIGKLTGMPIPLNSLRQQILGLPGDATDYKLDDQYRLSEITYSQNGKNWKVVYGGYDTKTQPAMPANMELTDGGQRIKLKMDNWIVK
- fold change of barcode share [1]: 0.302 ± 0.024
- fold change of barcode share [2]: 0.00578 ± 0.0038

B9: lolB I130P (protein)
chain: MPLPDFRLIRLLPLAALVLTACSVTTPKGPGKSPDSPQWRQHQQDVRNLNQYQTRGAFAYISDQQKVYARFFWQQTGQDRYRLLLTNPLGSTELELNAQPGNVQLVDNKGQRYTADDAEEMIGKLTGMPPPLNSLRQWILGLPGDATDYKLDDQYRLSEITYSQNGKNWKVVYGGYDTKTQPAMPANMELTDGGQRIKLKMDNWIVK
- fold change of barcode share [1]: 0.746 ± 0.014
- fold change of barcode share [2]: < 0.00156

B10: lolB I160A (protein)
chain: MPLPDFRLIRLLPLAALVLTACSVTTPKGPGKSPDSPQWRQHQQDVRNLNQYQTRGAFAYISDQQKVYARFFWQQTGQDRYRLLLTNPLGSTELELNAQPGNVQLVDNKGQRYTADDAEEMIGKLTGMPIPLNSLRQWILGLPGDATDYKLDDQYRLSEATYSQNGKNWKVVYGGYDTKTQPAMPANMELTDGGQRIKLKMDNWIVK
- fold change of barcode share [1]: 0.0911 ± 0.088

B11: lolB I130D (protein)
chain: MPLPDFRLIRLLPLAALVLTACSVTTPKGPGKSPDSPQWRQHQQDVRNLNQYQTRGAFAYISDQQKVYARFFWQQTGQDRYRLLLTNPLGSTELELNAQPGNVQLVDNKGQRYTADDAEEMIGKLTGMPDPLNSLRQWILGLPGDATDYKLDDQYRLSEITYSQNGKNWKVVYGGYDTKTQPAMPANMELTDGGQRIKLKMDNWIVK
- fold change of barcode share [1]: 0.386 ± 0.11
- fold change of barcode share [2]: 0.00319 ± 0.0015

B12: lolB W138A (protein)
chain: MPLPDFRLIRLLPLAALVLTACSVTTPKGPGKSPDSPQWRQHQQDVRNLNQYQTRGAFAYISDQQKVYARFFWQQTGQDRYRLLLTNPLGSTELELNAQPGNVQLVDNKGQRYTADDAEEMIGKLTGMPIPLNSLRQAILGLPGDATDYKLDDQYRLSEITYSQNGKNWKVVYGGYDTKTQPAMPANMELTDGGQRIKLKMDNWIVK
- fold change of barcode share [1]: 0.2353 ± 0.0014
- fold change of barcode share [2]: 0.00507 ± 0.002

B13: lolB I130W (protein)
chain: MPLPDFRLIRLLPLAALVLTACSVTTPKGPGKSPDSPQWRQHQQDVRNLNQYQTRGAFAYISDQQKVYARFFWQQTGQDRYRLLLTNPLGSTELELNAQPGNVQLVDNKGQRYTADDAEEMIGKLTGMPWPLNSLRQWILGLPGDATDYKLDDQYRLSEITYSQNGKNWKVVYGGYDTKTQPAMPANMELTDGGQRIKLKMDNWIVK
- fold change of barcode share [1]: 0.305 ± 0.054
- fold change of barcode share [2]: 0.00612 ± 0.0025

B14: lolB I130Q (protein)
chain: MPLPDFRLIRLLPLAALVLTACSVTTPKGPGKSPDSPQWRQHQQDVRNLNQYQTRGAFAYISDQQKVYARFFWQQTGQDRYRLLLTNPLGSTELELNAQPGNVQLVDNKGQRYTADDAEEMIGKLTGMPQPLNSLRQWILGLPGDATDYKLDDQYRLSEITYSQNGKNWKVVYGGYDTKTQPAMPANMELTDGGQRIKLKMDNWIVK
- fold change of barcode share [1]: 0.253 ± 0.028
- fold change of barcode share [2]: 0.0027 ± 0.0014

B15: lolB I122P (protein)
chain: MPLPDFRLIRLLPLAALVLTACSVTTPKGPGKSPDSPQWRQHQQDVRNLNQYQTRGAFAYISDQQKVYARFFWQQTGQDRYRLLLTNPLGSTELELNAQPGNVQLVDNKGQRYTADDAEEMPGKLTGMPIPLNSLRQWILGLPGDATDYKLDDQYRLSEITYSQNGKNWKVVYGGYDTKTQPAMPANMELTDGGQRIKLKMDNWIVK
- fold change of barcode share [1]: 0.243 ± 0.038
- fold change of barcode share [2]: 0.00542 ± 0.00065

B16: lolB I130A (protein)
chain: MPLPDFRLIRLLPLAALVLTACSVTTPKGPGKSPDSPQWRQHQQDVRNLNQYQTRGAFAYISDQQKVYARFFWQQTGQDRYRLLLTNPLGSTELELNAQPGNVQLVDNKGQRYTADDAEEMIGKLTGMPAPLNSLRQWILGLPGDATDYKLDDQYRLSEITYSQNGKNWKVVYGGYDTKTQPAMPANMELTDGGQRIKLKMDNWIVK
- fold change of barcode share [1]: 0.968 ± 0.074
- fold change of barcode share [2]: 0.00556 ± 0.0055
